Reference: the supplement of paper PMC4466236
Over roughly 33,000 sequences, “E-score (dimensionless, -0.5 to 0.5)” has its median near -0.058; the highest 2% begin near 0.35. Some of the results follow.

Test system: MvaT
Assay: PBM 8-mer E-score (mean of HK and ME arrays) (E-score (dimensionless, -0.5 to 0.5)); higher = stronger relative binding preference; most listed sequences are background and not binding sites
Outline: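 Reported values are rank-based E-scores, taken as the mean of two universal arrays and parsed with a custom script. Each 8-mer score falls between -0.5 and 0.5. The arrays, ME and HK, were double-stranded 60-mers with a constant 25-mer primer region and a variable 35-mer region covering all 8-mers. They were probed, by an earlier protocol, with full-length P. aeruginosa MvaT carrying an N-terminal glutathione S-transferase fusion.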

Row | Sequence | PBM 8-mer E-score
1 | AAAATATT | 0.435
2 | GCTCTCCC | -0.363
3 | GGGAGGGA | -0.229
4 | ATTATGCA | 0.337
5 | AAAGCATG | -0.0603
6 | CCGGGAAA | -0.0199
7 | GAGTAACA | 0.0497
8 | CATAAATC | 0.163
9 | GATTTGGA | -0.163
10 | AAATCGCC | -0.0798
11 | CAATCAAG | 0.103
12 | CACAGTTA | 0.165
13 | ATGTAGAA | 0.144
14 | CGAAAAGA | 0.128
15 | CGTTGCTC | -0.217
16 | ATCCCGCG | -0.0399
17 | GTTGTAGA | 0.158
18 | TGCAAACA | 0.106
19 | ACTAGGCG | -0.11
20 | CGAATCGA | 0.147
21 | TGCGATAA | 0.0674
22 | CGTACACA | 0.127
23 | ATGTCACC | -0.0161
24 | ACGATACC | -0.0898
25 | CGTGTCTC | -0.0557

Row | Sequence | PBM 8-mer E-score
26 | AAGCAGAT | -0.054
27 | ATGCGTGC | -0.124
28 | GAAAGCCA | -0.192
29 | CTGTCACA | -0.122
30 | AAAAATTA | 0.275
31 | AAGGATCA | -0.139
32 | ATGAAGAC | 0.0318
33 | AACTTTAA | 0.385
34 | TAGCTGGA | -0.302
35 | GAATGTCC | -0.0827
36 | CGTACGCC | -0.222
37 | GGGAGCTA | -0.206
38 | ATAAGGCA | 0.203
39 | CTCGTGGA | -0.184
40 | GAGCGTGA | -0.216
41 | ATGAGTTG | 0.0506
42 | AGAAATGG | -0.162
43 | CCCTCAGG | -0.177
44 | ATGATGTC | -0.0953
45 | ACTGAAAT | 0.0999
46 | AGTTACTG | 0.282
47 | CACAAGGC | -0.197
48 | CAGGAGTC | -0.231
49 | CCTGGCTA | -0.149
50 | TGAGCTCA | -0.198

Row | Sequence | PBM 8-mer E-score
51 | CACATGTG | -0.143
52 | CATCAACA | 0.0618
53 | AGACTGGA | 0.0474
54 | AATGTCCG | 0.00803
55 | GCGTGACC | -0.216
56 | GAATATTC | 0.349
57 | CGGTAAAA | 0.0627
58 | GACCTGCC | -0.29
59 | CACTAACG | -0.0868
60 | CCTTCCTC | -0.356
61 | CAATCTAG | 0.0954
62 | CAACCGGA | -0.0151
63 | AAGCCCAA | -0.138
64 | CACAGAGA | 0.0304
65 | AACGTGGC | -0.136
66 | AGTATTAC | 0.306
67 | ACTCGGGA | -0.112
68 | CGATCCGC | -0.158
69 | CACTGCAG | -0.126
70 | CCTAGACG | -0.198
71 | CTAATTTA | 0.389
72 | ATGGCGTG | -0.144
73 | AGATTCGC | -0.144
74 | ATACCACG | 0.121
75 | CACTTTAA | 0.274

Row | Sequence | PBM 8-mer E-score
76 | CGTGTACA | 0.00185
77 | GTAAAAGA | 0.228
78 | AACCAGTG | -0.161
79 | CGAAGCAG | -0.254
80 | TTCCTCAA | 0.077
81 | ACAGCTGG | -0.158
82 | ACCAAAGT | 0.168
83 | GAACCTTC | -0.193
84 | GAAAGCGC | -0.18
85 | ACTGACGA | -0.0918
86 | AGATACTC | 0.108
87 | GCTGCCAC | -0.209
88 | AAGGACAT | 0.009
89 | GAAAAATA | 0.317
90 | AGTCTCCG | -0.144
91 | GCAGTGTA | -0.0294
92 | GAGTACTC | -0.143
93 | ACAGGCCG | -0.147
94 | AACACTCA | -0.0454
95 | AGGAGCCA | -0.267
96 | TGGTGGAA | -0.129
97 | GATCGGCC | -0.194
98 | GTATGCAC | 0.0491
99 | CACTTTTC | 0.102
100 | CCGCCGCG | -0.232

Row | Sequence | PBM 8-mer E-score
101 | ATCCTTTG | -0.0516
102 | ACCTTTTA | 0.217
103 | ATGCCCGG | -0.154
104 | AAAATCCT | 0.0802
105 | CCTGGATA | 0.0126
106 | CGTCAACG | -0.103
107 | ACCAGCTC | -0.176
108 | GATTGTGC | -0.0469
109 | CCTGCCGC | -0.311
110 | TCGGTAAA | -0.0432
111 | ACATCGCG | 0.0109
112 | TAAGTTAA | 0.426
113 | ACCGGTTA | 0.00836
114 | ACATTAAG | 0.265
115 | CCCGCCGA | -0.214
116 | ATAATCGC | 0.245
117 | GTTGGGTA | -0.0758
118 | GGAGGCTA | -0.273
119 | CCCAAGGC | -0.0976
120 | GTGTTATA | 0.32
121 | CCAAAAAG | 0.0756
122 | AATTTTAC | 0.298
123 | ACCACGGG | -0.272
124 | AGCTGGTG | -0.102
125 | CATTTAGG | -0.00624

Row | Sequence | PBM 8-mer E-score
126 | CATGGCGG | -0.14
127 | ATACAGAA | 0.158
128 | CCGTGGCG | -0.194
129 | CCTTAAAG | 0.0732
130 | GATTATGA | 0.0705
131 | CAAGTTCA | 0.295
132 | CCGTTCGA | -0.198
133 | CGCGGCTC | -0.284
134 | CTGCAGAA | 0.0767
135 | GCTTCGGA | -0.128
136 | AACCACGA | -0.00994
137 | CAGATGCA | -0.161
138 | CTTGCAAA | 0.0517
139 | GAATTGTA | 0.191
140 | AGAAACAA | 0.229
141 | CATAACCC | -0.0855
142 | AAGGCTTG | -0.164
143 | CAACGTAC | -0.0278
144 | CCCTCTTA | -0.148
145 | ACGCATGC | -0.0147
146 | CGATAGCG | -0.202
147 | CCAGCGGA | -0.242
148 | ACTAAATA | 0.31
149 | AACATAGC | 0.0859
150 | CACATCCA | 0.00683

Row | Sequence | PBM 8-mer E-score
151 | GCATAGGC | -0.113
152 | AGGGGTAT | -0.0392
153 | CTATAATA | 0.42
154 | CAAGCATA | 0.089
155 | GTCGCGGA | -0.0294
156 | GGATGTTA | 0.191
157 | CTCGGAAA | 0.02
158 | CTTGCAGA | -0.112
159 | ACAACACT | 0.068
160 | CCAAATAC | 0.0881
161 | ACGCCGTA | -0.235
162 | AATTAGCT | 0.231
163 | GCCCCCCC | -0.303
164 | GATATTCA | 0.0985
165 | CTGCGGAA | -0.0896
166 | AGCGCGAA | -0.0554
167 | TATTGACA | 0.261
168 | ACGGATAT | 0.113
169 | CCAGGTCC | -0.34
170 | TCCTTGAA | -0.182
171 | AGGGTTCG | -0.21
172 | GACCAGCA | -0.151
